From paper PMC7592119 (Science (New York, N.Y.), 2019)

Target: CDK4-CycD1 dimer (CDK4 T172E) of the activity assays (human, UniProt P11802 1-303; P24385, T172E)
Experiment: reconstituted recombinant complexes used as enzymes

Sequence of UniProt P11802 (P11802 whole entry T172E, chain 1 of 2): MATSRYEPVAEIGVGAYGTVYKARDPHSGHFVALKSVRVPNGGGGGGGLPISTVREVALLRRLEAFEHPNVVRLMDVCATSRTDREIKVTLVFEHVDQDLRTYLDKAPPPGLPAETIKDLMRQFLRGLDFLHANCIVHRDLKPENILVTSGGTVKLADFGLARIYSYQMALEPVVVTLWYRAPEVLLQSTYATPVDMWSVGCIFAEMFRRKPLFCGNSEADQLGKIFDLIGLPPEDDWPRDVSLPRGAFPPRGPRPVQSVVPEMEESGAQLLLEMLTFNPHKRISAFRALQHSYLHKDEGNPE
Sequence of UniProt P11802 (P24385 whole entry, chain 2 of 2, further chain): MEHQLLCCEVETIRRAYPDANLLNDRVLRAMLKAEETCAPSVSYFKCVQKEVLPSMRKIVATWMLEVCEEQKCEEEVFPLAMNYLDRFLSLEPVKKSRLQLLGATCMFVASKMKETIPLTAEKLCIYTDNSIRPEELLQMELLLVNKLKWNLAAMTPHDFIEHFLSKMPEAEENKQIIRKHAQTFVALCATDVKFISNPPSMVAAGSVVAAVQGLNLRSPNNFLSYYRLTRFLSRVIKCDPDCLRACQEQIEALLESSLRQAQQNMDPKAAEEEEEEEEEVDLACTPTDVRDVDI

B1: p27 kinase-inhibitory domain (p27^KID; […]) (domain or fragment)
chain: not shown
binding result: binds

B2: p27 kinase inhibitory domain ([…]) with a phosphomimetic at Y74 (domain or fragment)
chain: not shown
binding result: binds
